Data on 58 compounds can be found in article PMC4336329 (PLoS ONE, 2015).

About 2,200 (0.71%) of roughly 310,000 compounds showed an effect of 50% or more. The effect is printed as a negative number. The list shows a part of the results.

The target of this assay is human ether-à-go-go-related gene (hERG) potassium channel (human, UniProt Q12809). The experiment in a line: primary screen, population patch clamp on CHO cells stably expressing hERG.
human ether-à-go-go-related gene (hERG) potassium channel, sequence (Q12809 whole entry, looked up): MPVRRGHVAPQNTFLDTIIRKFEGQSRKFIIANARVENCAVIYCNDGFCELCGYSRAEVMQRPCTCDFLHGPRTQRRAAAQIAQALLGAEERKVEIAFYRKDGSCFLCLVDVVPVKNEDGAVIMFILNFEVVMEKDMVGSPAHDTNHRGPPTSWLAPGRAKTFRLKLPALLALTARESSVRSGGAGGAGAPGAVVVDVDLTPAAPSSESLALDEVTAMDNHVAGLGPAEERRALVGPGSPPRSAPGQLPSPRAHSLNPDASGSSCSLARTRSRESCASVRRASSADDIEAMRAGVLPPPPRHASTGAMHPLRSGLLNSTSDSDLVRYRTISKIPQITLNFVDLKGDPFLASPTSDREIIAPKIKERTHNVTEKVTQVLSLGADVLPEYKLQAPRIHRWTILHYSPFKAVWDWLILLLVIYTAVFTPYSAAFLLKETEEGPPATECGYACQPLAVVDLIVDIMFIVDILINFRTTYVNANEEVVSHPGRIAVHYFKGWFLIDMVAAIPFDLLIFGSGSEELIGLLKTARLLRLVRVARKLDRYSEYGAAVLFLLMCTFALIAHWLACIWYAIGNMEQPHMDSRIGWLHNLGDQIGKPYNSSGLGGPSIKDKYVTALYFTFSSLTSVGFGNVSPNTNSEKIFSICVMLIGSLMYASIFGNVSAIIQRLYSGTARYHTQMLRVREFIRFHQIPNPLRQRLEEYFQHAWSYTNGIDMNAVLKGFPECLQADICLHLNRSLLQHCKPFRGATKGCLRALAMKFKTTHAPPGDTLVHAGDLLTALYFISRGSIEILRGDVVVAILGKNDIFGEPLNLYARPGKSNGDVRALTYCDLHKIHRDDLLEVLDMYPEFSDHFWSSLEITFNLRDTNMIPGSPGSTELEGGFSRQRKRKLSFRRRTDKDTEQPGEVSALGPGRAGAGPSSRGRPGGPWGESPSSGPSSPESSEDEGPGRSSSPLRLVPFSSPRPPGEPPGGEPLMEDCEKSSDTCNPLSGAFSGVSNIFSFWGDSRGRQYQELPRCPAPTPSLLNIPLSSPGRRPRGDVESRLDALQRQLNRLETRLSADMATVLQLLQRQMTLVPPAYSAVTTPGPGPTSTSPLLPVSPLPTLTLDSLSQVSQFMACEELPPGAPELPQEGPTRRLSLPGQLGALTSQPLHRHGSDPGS
As to `Cc1ccccc1OCC(=O)Nc1ccccc1CO`, the “hERG current change (%, negative = inhibition) at 1uM” value is 14.5%.

As to `CC(=O)Nc1ccc(-c2nnn(CC(=O)c3ccc(F)cc3)n2)cc1Cl`, the “hERG current change (%, negative = inhibition) at 1uM” value is recorded as 8.91%.

In the case of `CCN(CC(=O)Nc1ccccc1OC)C(=O)CN1C(=O)NC2(CCCC2)C1=O`, the “hERG current change (%, negative = inhibition) at 1uM” value was -17.4%.

As for `O=c1ccn([C@@H]2O[C@H](CO)[C@@H](O)[C@H]2O)c(=O)[nH]1`, the “hERG current change (%, negative = inhibition) at 1uM” value is listed as 12.5%.

`CCCN1CCCC[C@H]1C(=O)Nc1c(C)cccc1C.Cl`: the “hERG current change (%, negative = inhibition) at 1uM” value is recorded as -7.61%.

Regarding `Cc1cc(C)n(C(=O)CCCCCCCC(=O)n2nc(C)cc2C)n1`, the “hERG current change (%, negative = inhibition) at 1uM” value is given as 5%.

As to `O=C1NC(=O)N(c2ccc(Cl)cc2)C(=O)/C1=C/c1coc2ccc(O)cc2c1=O`, the “hERG current change (%, negative = inhibition) at 1uM” value worked out at 14.2%.

For the compound `O=C(O)CCCC(=O)NCCc1ccncc1`, the “hERG current change (%, negative = inhibition) at 1uM” value is listed as 11.1%.

For `Cc1ccc(-n2nnnc2SCC(=O)NCCC2=CCCCC2)c(C)c1`, the “hERG current change (%, negative = inhibition) at 1uM” value was 16.2%.

For the compound `COc1cccc(NC(=O)c2cnc[nH]2)c1`, the “hERG current change (%, negative = inhibition) at 1uM” value was 14.6%.

On to `CCCCN1CN(Cc2ccccc2)CNC1=S`, for which the “hERG current change (%, negative = inhibition) at 1uM” value amounted to 14.4%.

As to `CC(C)OCCCNC(=O)C1CCN(S(=O)(=O)c2ccc3nc4c(c(C(=O)O)c3c2)CCCCC4)CC1`, the “hERG current change (%, negative = inhibition) at 1uM” value is recorded as 29.1%.

Turning to `Cc1cc(C(=O)N2CCCC(N3CCN(c4cccc(Cl)c4)CC3)C2)no1` (stereo not shown), the “hERG current change (%, negative = inhibition) at 1uM” value was 10.5%.

Consider `O=C1NC(=S)N/C1=C/c1cccnc1`, for which the “hERG current change (%, negative = inhibition) at 1uM” value turned out to be 9.03%.

`CCOC(=O)C1CCN(Cc2nc(-c3ccc(OC)c(OC)c3)no2)CC1`: the “hERG current change (%, negative = inhibition) at 1uM” value came to 8.51%.

Take `COC(=O)CC(NS(=O)(=O)c1cccs1)c1ccccc1Cl` (stereo not shown): the “hERG current change (%, negative = inhibition) at 1uM” value is recorded as 21%.

Regarding `O=C(CSc1ncn[nH]1)NC12CC3CC(CC(C3)C1)C2`, the “hERG current change (%, negative = inhibition) at 1uM” value came out at 0.0513%.

For `O=C(CCN1C(=O)/C(=C/c2cccc(Br)c2)SC1=S)Nc1cccnc1`, the “hERG current change (%, negative = inhibition) at 1uM” value was determined as 9.87%.

Consider `CCCN(C(=O)CSc1cc(-c2ccccc2)c2ccc(OC)cc2n1)C1CCS(=O)(=O)C1` (stereo not shown), for which the “hERG current change (%, negative = inhibition) at 1uM” value is listed as 18%.

Consider `CC(C)=C1C2CCC1C(C(=O)NCc1ccccc1)C2C(=O)O` (stereo not shown), for which the “hERG current change (%, negative = inhibition) at 1uM” value came to 10.3%.

As for `NNC1=[NH+][C@H]2CS(=O)(=O)C[C@H]2S1.[Br-]`, the “hERG current change (%, negative = inhibition) at 1uM” value was determined as 18.3%.

Turning to `CC(C)NC(=O)C1CC=CCC1C(=O)O` (stereo not shown), the “hERG current change (%, negative = inhibition) at 1uM” value is 9.37%.

For `Cc1ccccc1C(=O)OCC(=O)N(C)c1ccccc1`, the “hERG current change (%, negative = inhibition) at 1uM” value is reported as 11.7%.

Consider `O=C(Cn1cnc2ccccc21)N/N=C/c1cccc([N+](=O)[O-])c1`, for which the “hERG current change (%, negative = inhibition) at 1uM” value worked out at 3.02%.

On to `CCOC(=O)Cn1nc(C)c2ccccc2c1=O`, for which the “hERG current change (%, negative = inhibition) at 1uM” value is listed as 4.8%.

Turning to `COc1ccccc1CCNC(=O)C(=O)c1cn(CC(=O)N2CCCC2)c2ccccc12`, the “hERG current change (%, negative = inhibition) at 1uM” value was 10.7%.

In the case of `O=S(=O)(NCCc1cn2ccccc2n1)c1ccc(F)c(C(F)(F)F)c1`, the “hERG current change (%, negative = inhibition) at 1uM” value was -8.49%.

Take `Cc1ccc(CNC(=O)CCNS(=O)(=O)c2ccc(C)cc2)cc1`: the “hERG current change (%, negative = inhibition) at 1uM” value turned out to be 16.7%.

For `NNC(=O)c1csc(CS(=O)(=O)c2ccc(Cl)cc2)n1`, the “hERG current change (%, negative = inhibition) at 1uM” value turned out to be 5.43%.

`CCOC(=O)Cn1c(=S)[nH]c2c(oc3ccc(Cl)cc32)c1=O`: the “hERG current change (%, negative = inhibition) at 1uM” value was 2.06%.

Consider `CCc1ccc(NC(=S)N(CCOC)C2CCN(C(C)=O)CC2)cc1`, for which the “hERG current change (%, negative = inhibition) at 1uM” value stood at 17.5%.

Take `COCCNC(=O)/C(C#N)=C/c1cccc(NC(=O)c2ccccc2Cl)c1`: the “hERG current change (%, negative = inhibition) at 1uM” value is reported as 4.09%.

With `CCOC(=O)C1=C(CS(=O)(=O)c2ccccc2)NC(=O)NC1c1ccccc1` (stereo not shown), the “hERG current change (%, negative = inhibition) at 1uM” value worked out at 12.5%.

For the compound `COc1ccc(C(=O)N2CCC(O)(c3ccc(Cl)cc3)CC2)cc1OC`, the “hERG current change (%, negative = inhibition) at 1uM” value is reported as -5.68%.

Regarding `Cc1ccc(S(=O)(=O)N2Cc3ccccc3CC2C(=O)Nc2ccc3c(c2)OCO3)cc1` (stereo not shown), the “hERG current change (%, negative = inhibition) at 1uM” value is on record as 3.79%.

As for `COCCN=C1Sc2nc3cc4c(cc3cc2CN1CC1CCCO1)OCO4.Cl` (stereo not shown), the “hERG current change (%, negative = inhibition) at 1uM” value is 5.27%.

As for `CC1(C)NC(=O)N(CC(O)CN(c2cccc([N+](=O)[O-])c2)S(=O)(=O)c2ccccc2)C1=O` (stereo not shown), the “hERG current change (%, negative = inhibition) at 1uM” value was 8.68%.

Turning to `CC(OC(=O)CCc1nc2ccccc2c(=O)[nH]1)C(=O)NC1CCCC1` (stereo not shown), the “hERG current change (%, negative = inhibition) at 1uM” value was 12.1%.

With `COc1ccc(CC(=O)NCCN2CCCC2)cc1.Cl`, the “hERG current change (%, negative = inhibition) at 1uM” value is on record as 12.1%.

Take `c1ccc(CCCN2CCN(c3ccccc3)CC2)cc1`: the “hERG current change (%, negative = inhibition) at 1uM” value is -21.8%.

For the compound `CCOc1ccc2c(c1)C(=O)c1cc(OCC(=O)O)ccc1-2`, the “hERG current change (%, negative = inhibition) at 1uM” value came to 10.6%.

In the case of `COCCCn1c(N)c(C(=O)Nc2sc3c(c2C(=O)OC)CCCC3)c2nc3ccccc3nc21`, the “hERG current change (%, negative = inhibition) at 1uM” value was -3.2%.

Consider `COc1ccccc1N(CC(=O)NCc1ccccc1)S(C)(=O)=O`, for which the “hERG current change (%, negative = inhibition) at 1uM” value stood at 13.5%.

In the case of `C(=N\N1CCN(Cc2ccccc2)CC1)/c1ccc(-c2ccccc2)cc1`, the “hERG current change (%, negative = inhibition) at 1uM” value is recorded as 3.77%.

For `O=C(c1ccccc1C(F)(F)F)N1CCN(S(=O)(=O)c2ccccc2)CC1`, the “hERG current change (%, negative = inhibition) at 1uM” value is recorded as 21.9%.

Regarding `Brc1ccc(C2=NC(Cc3ccccc3)CO2)cc1` (stereo not shown), the “hERG current change (%, negative = inhibition) at 1uM” value is 7.15%.

As for `Cc1ccc(NS(=O)(=O)c2cc(OCC(N)=O)c(C)cc2Cl)cc1`, the “hERG current change (%, negative = inhibition) at 1uM” value came out at 12.9%.

On to `C/C(=N\NC(=O)c1ccc(CSc2nncn2C)cc1)c1ccc2ccccc2c1`, for which the “hERG current change (%, negative = inhibition) at 1uM” value is recorded as 7.75%.

Take `O=C(NCc1cccnc1)c1cc(-c2ccco2)on1`: the “hERG current change (%, negative = inhibition) at 1uM” value stood at 8.42%.

On to `CCOC(=O)c1ccc(N/C=C2/CCCC(C)C2=O)cc1` (stereo not shown), for which the “hERG current change (%, negative = inhibition) at 1uM” value came to 13.6%.

In the case of `CCn1c(SCC(=O)NCCc2ccc(F)cc2)nnc1-c1cccs1`, the “hERG current change (%, negative = inhibition) at 1uM” value is given as -13.5%.

As to `CC(=O)Oc1ccc(C(=O)Nc2cccc(C(=O)c3ccc(C)c(C)c3)c2)cc1`, the “hERG current change (%, negative = inhibition) at 1uM” value is listed as -8.66%.

For `Nn1c(SCC(=O)Nc2ccc(F)cc2)nnc1C1CCCCC1`, the “hERG current change (%, negative = inhibition) at 1uM” value stood at 11.3%.

Consider `Cc1noc(C)c1COc1ccccc1C(=O)N1CCN(c2cccc(C(F)(F)F)c2)CC1`, for which the “hERG current change (%, negative = inhibition) at 1uM” value is given as -4.25%.

`Cc1cc(-c2ccc(C)c(S(=O)(=O)NCCC(C)N3CCCCCC3)c2)on1` (stereo not shown): the “hERG current change (%, negative = inhibition) at 1uM” value is given as 14.2%.

For `CCc1cccc(C)c1NC(=O)Cn1nc(C)n2cccc2c1=O`, the “hERG current change (%, negative = inhibition) at 1uM” value amounted to 18%.

On to `CC(=O)c1ccc(OCC(O)CN2CCN(CC(O)COc3ccc(C(C)=O)cc3)CC2)cc1` (stereo not shown), for which the “hERG current change (%, negative = inhibition) at 1uM” value is on record as -7.77%.

As for `Cc1ccc(-n2nnnc2SC(C)C(=O)Nc2ccc(Cl)cn2)cc1` (stereo not shown), the “hERG current change (%, negative = inhibition) at 1uM” value was found to be 8.95%.
